From PubChem BioAssay AID504332 (National Center for Advancing Translational Sciences (NCATS), 2011)
Values joined by “and” are separate entries in the source; they are usually repeats but may differ in a detail not shown here. Equal entries are not always repeated. The campaign covered roughly 350,000 compounds. About 31,000 (8.9%) were called active. The inconclusive results got no clear call from the source; some entries with a clear call stand among them for comparison. Calls follow the shape of the dose curve; as a rule, active = well fitted inhibition curve with a large enough effect; inconclusive = small, poorly fitted or top-dose-only effect; inactive = no such curve, though single readings can be large or run the other way. A potency beside an inconclusive call is a rough fit, not a confirmed value.

The compounds below were run against Histone-lysine N-methyltransferase EHMT2 (Homo sapiens) (UniProt Q96KQ7) (assay: qHTS Assay for Inhibitors of Histone Lysine Methyltransferase G9a). Conditions: G9a H3K9 monomethylation, AlphaScreen, 2 h; activity, negative = inhibition: at 59 µM (top of the series) unless noted.
In short: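 G9a (20 nM) was preincubated 15 min with compound, then reacted 2 h at room temperature with 500 nM biotin-H3K9 peptide and 20 µM SAM. Monomethyl-H3K9 detected by AlphaScreen using anti-H3K9me1 antibody.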
% is scaled to controls: 0 for no effect and ±100 for the full control effect; potency is read from the fitted curve at half-maximal effect; tags tell the direction and shape of the fitted curve.
Also: nearly all actives have a fitted effect of over 75% in size.

Sequence of UniProt Q96KQ7 (Q96KQ7 whole entry, looked up): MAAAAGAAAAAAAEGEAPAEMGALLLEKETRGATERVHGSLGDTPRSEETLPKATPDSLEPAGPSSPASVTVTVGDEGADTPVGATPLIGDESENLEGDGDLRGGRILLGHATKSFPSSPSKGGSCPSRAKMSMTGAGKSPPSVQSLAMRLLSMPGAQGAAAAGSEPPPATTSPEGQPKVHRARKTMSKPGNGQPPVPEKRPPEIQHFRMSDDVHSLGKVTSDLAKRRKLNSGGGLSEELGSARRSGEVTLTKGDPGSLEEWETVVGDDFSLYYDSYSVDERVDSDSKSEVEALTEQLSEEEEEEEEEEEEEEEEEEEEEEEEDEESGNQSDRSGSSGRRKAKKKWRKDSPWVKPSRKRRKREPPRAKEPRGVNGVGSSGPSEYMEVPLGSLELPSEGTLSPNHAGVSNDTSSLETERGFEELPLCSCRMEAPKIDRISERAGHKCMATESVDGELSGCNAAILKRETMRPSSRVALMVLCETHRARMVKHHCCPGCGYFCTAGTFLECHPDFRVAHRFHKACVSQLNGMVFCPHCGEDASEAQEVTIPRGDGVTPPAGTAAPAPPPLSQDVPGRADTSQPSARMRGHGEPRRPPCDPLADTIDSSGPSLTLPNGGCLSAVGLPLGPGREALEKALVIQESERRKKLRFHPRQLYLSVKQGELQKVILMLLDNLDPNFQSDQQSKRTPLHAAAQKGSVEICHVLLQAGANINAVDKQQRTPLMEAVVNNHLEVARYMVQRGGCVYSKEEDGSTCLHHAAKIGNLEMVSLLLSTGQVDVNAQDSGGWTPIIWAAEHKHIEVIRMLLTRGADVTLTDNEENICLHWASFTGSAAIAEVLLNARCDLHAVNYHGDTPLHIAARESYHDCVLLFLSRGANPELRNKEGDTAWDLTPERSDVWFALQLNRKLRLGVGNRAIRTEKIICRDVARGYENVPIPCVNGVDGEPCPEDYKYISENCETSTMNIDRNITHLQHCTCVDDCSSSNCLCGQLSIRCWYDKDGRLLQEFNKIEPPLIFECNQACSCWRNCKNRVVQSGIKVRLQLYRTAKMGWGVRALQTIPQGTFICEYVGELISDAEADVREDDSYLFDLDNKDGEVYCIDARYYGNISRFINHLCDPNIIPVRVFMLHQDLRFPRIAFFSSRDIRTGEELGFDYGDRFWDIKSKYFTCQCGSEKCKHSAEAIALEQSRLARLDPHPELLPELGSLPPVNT

SMILES | activity, negative = inhibition | Potency
COc1ccc(NC(=O)C(NS(=O)(=O)c2ccc3c(c2)CCCN3C(C)=O)C(C)C)c(OC)c1 (centres undefined) | inconclusive: -106% [inhibitor] | –
O=C(Cn1ncc2c3ccccc3n(Cc3cccc(Cl)c3)c2c1=O)Nc1ccc(F)cc1F | – | inactive
Cc1cc(C(=O)N/N=C/c2ccc(Cl)c([N+](=O)[O-])c2)c(C)n1-c1ccc(F)cc1 | – | inconclusive: 6.31 µM [inhibitor, full curve]
COc1ccccc1NC(=O)CN1CCN(CC(=O)Nc2ccc3c(c2)OCCO3)CC1 | – | inconclusive: 2.82 µM [inhibitor, partial curve, poor fit]
COc1cc(/C=C/c2cc[n+](C)cc2)ccc1OCC(=O)Nc1ccc(Cl)c(Cl)c1 | – | inconclusive: 28.2 µM [inhibitor, partial curve, poor fit]
CCOc1cc(C=O)cc(Br)c1OCC(=O)NCCc1ccccc1 | – | inactive
O=C(NCc1cccnc1)c1cc2nc(-c3cccs3)cc(C(F)(F)Cl)n2n1 | – | active: 50.1 µM
C/C(=N\OCC(=O)OCC(=O)NCc1ccccc1)c1ccc2c(c1)OCO2 | – | inconclusive: 44.7 µM [inhibitor, partial curve, poor fit]
S=C(NCCCN1CCOCC1)Nc1ccc(N2CCOCC2)cc1 | – | inconclusive: 56.2 µM [inhibitor, single point]
O=C(O)Cn1ncc2c1-c1ccoc1CC2 | – | active: 11.2 µM
COc1ccc(CCNC(=O)CCN2C(=O)C3CC=CCC3C2=O)cc1OC (centres undefined) | – | inactive
CCOC(=O)C1=C(O)C(Nc2nccs2)(C(F)(F)F)N=C1C (centres undefined) | – | inconclusive: 70.8 µM [inhibitor, partial curve, poor fit]
CCc1cc(=O)oc2cc(OCc3nn[nH]n3)ccc12 | – | inactive
CCCNC(=O)Cn1c2ccccc2c2nc(=O)cc(C)n21 | – | inconclusive: 79.4 µM [inhibitor, single point]
CCOC(=O)C1=C(C)NC(=O)C1CC(=O)O (centres undefined) | – | inconclusive: 89.1 µM [inhibitor, single point]
CC1CCN(c2ccc3nnc(CCC(=O)NCCCOC(C)C)n3n2)CC1 | – | inactive
O=C(O)CC(C(=O)O)N1C(=O)/C(=C/c2ccc(-c3nc4ccccc4s3)o2)SC1=S (centres undefined) | – | active: 5.01 µM
COc1ccc(N2CCN(C(=O)c3ccc(NS(=O)(=O)c4ccc(F)cc4)cc3)CC2)cc1 | inconclusive: -84.1% [inhibitor] | –
O=[N+]([O-])c1ccc(N=Nc2ncc[nH]2)cc1 | – | inconclusive: 100 µM [inhibitor, single point]
Nc1cc(=O)[nH]c(SCC(=O)Nc2cccc([N+](=O)[O-])c2)n1 | inactive: 28.1% [at 12.7 µM] | –
O=C(O)c1ccc(OC(F)(F)C(F)C(F)(F)F)cc1 (centres undefined) | – | inactive
Oc1cccc(C(O)CNCc2ccc(-c3ccccc3)cc2)c1 (centres undefined) | – | inconclusive: 79.4 µM [inhibitor, single point]

SMILES | activity, negative = inhibition | Potency
CCc1ccc(C2=NN(CCC(=O)NCCc3ccccc3)C(=O)CC2)cc1 | – | inactive
CC1CC(C)(C)Nc2ccc(OC(=O)c3ccco3)cc21 (centres undefined) | – | active: 44.7 µM
Cc1cccc(NC(=O)CCN2C(=O)C3C4C=CC(C4)C3C2=O)n1 (centres undefined) | – | inactive
CCOc1cc(NC(=S)NCCCN2CCOCC2)c(OCC)cc1NC(=O)C(C)C | – | inconclusive: 79.4 µM [inhibitor, single point]
CCOC(=O)C1CCCN(C(=O)c2ccc(S(=O)(=O)NCc3ccco3)cc2)C1 (centres undefined) | – | inconclusive: 56.2 µM [inhibitor, partial curve]
O=[N+]([O-])c1ccc(N/N=C/c2cn(Cc3ccc(F)cc3)c3ccccc23)nc1 | – | inconclusive: 8.91 µM [inhibitor, partial curve, poor fit]
COc1ccc2[nH]c(-c3cccc(F)c3)cc(=O)c2c1 | – | inconclusive: 89.1 µM [inhibitor, single point] and inconclusive: 2.51 µM [inhibitor, partial curve, poor fit]
O=C(c1ccco1)N1CCN(C(c2ccc(Cl)cc2)c2nnnn2Cc2ccccc2)CC1 (centres undefined) | – | inconclusive: 39.8 µM [inhibitor, single point]
CC(=O)c1ccc(Nc2cc(C)nc3nc(Cc4ccccc4)nn23)cc1 | – | inconclusive: 25.1 µM [inhibitor, partial curve, poor fit]
CC(Oc1ccccc1Cl)C(=O)Nc1ccc(S(=O)(=O)N2CCCC2)cc1 (centres undefined) | – | inconclusive: 70.8 µM [inhibitor, single point]
CC(=O)Oc1c(C(=O)c2nnc(C)o2)c(=O)n(C)c2ccccc12 | – | inactive
COc1ccc(C)cc1NC(=O)/C=C/c1ccc(OC)c(S(=O)(=O)N2CCOCC2)c1 | – | inconclusive: 39.8 µM [inhibitor, single point]
COc1ccc(-n2c(=O)c3c4c(sc3n(Cc3ccccc3C)c2=O)CCCC4)c(OC)c1 | – | inconclusive: 7.94 µM [inhibitor, partial curve, poor fit]
COc1ccc(Cc2nc(-c3ccc(-n4cccc4)cc3)no2)cc1OC | – | inconclusive: 10 µM [inhibitor, partial curve, poor fit]
COc1ccc(CN2CCNC(=O)C2CC(=O)N2CCCCO2)cc1OC (centres undefined) | – | inconclusive: 50.1 µM [inhibitor, partial curve]
COC(=O)c1c(-c2ccc(C)cc2)csc1NC(=S)NC(=O)c1ccc(F)cc1 | – | active: 79.4 µM
CCC1(C)CC(=O)c2c(ccc3oc(C(=O)Nc4ccc(C(C)=O)cc4)c(C)c23)O1 (centres undefined) | – | inactive
COc1cccc(-c2nc(CS(=O)CC(=O)NCc3ccc(F)cc3)c(C)o2)c1 (centres undefined) | – | inactive
CC(C)c1ccc(Nc2sc(C(=O)c3ccccc3)c(N)c2S(=O)(=O)c2ccccc2)cc1 | – | inactive
CCOc1ccc(C(=O)NCCc2csc(-c3cccc(C)c3)n2)cc1 | – | inactive
CCn1ccnc1CN(C)C(=O)c1cc(COc2ccccc2SC)on1 | – | inconclusive: 70.8 µM [inhibitor, single point]
N#C/C(=C/c1ccc(C(=O)O)cc1)C(=O)NCc1ccccc1 | – | inconclusive: 44.7 µM [inhibitor, partial curve, poor fit]
